# Test results as given in the supplement of paper PMC8728848.
# The other results are listed elsewhere or left out.
# B1: Banana lectin (Musa acuminata) (protein)
# chain: MNGAIKVGAWGGNGGSAFDMGPAYRIISVKIFSGDVVDGVDVTFTYYGKTETRHYGGSGGTPHEIVLQEGEYLVGMAGEVANYTGAVVLGKLGFSTNKKAYGPFGNTGGTPFSLPIAAGKISGFFGRGGKFLDAIGVYLEPLEHHHHHH
# Assays:
# Test in all cases: glycan array binding signal (z-score within array); higher = stronger binding
# Conditions in all cases: glycan notation: IUPAC condensed, linker removed; mutation: H84T
# Gal6S(b1-4)Glc = biological target: Gal6S(b1-4)Glc
# Method in brief: (§1)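 The binding signal is a Z-score computed within each array and averaged over linkers. Arrays of the same protein sequence at different concentrations or buffers were also averaged together. Data originate from 3228 arrays in the Consortium for Functional Glycomics database, kept only where the protein sequence was available.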
# Gal6S(b1-4)Glc6S = biological target: Gal6S(b1-4)Glc6S
# Method in brief: as §1
# Gal6S(b1-4)GlcNAc = biological target: Gal6S(b1-4)GlcNAc
# Method in brief: as §1
# Gal6S(b1-4)GlcNAc6S = biological target: Gal6S(b1-4)GlcNAc6S
# Method in brief: as §1
# GalNAc(a1-3)Gal = biological target: GalNAc(a1-3)Gal
# Method in brief: as §1
# GalNAc(a1-3)GalNAc = biological target: GalNAc(a1-3)GalNAc
# Method in brief: as §1
# [1] = biological target: GalNAc(a1-3)GalNAc(b1-3)Gal(a1-4)Gal(b1-4)Glc
# Method in brief: as §1
# [2] = biological target: GalNAc(a1-3)GalNAc(b1-3)Gal(a1-4)Gal(b1-4)GlcNAc
# Method in brief: as §1
# GalNAc(b1-3)Gal = biological target: GalNAc(b1-3)Gal
# Method in brief: as §1
# [3] = biological target: GalNAc(b1-3)Gal(a1-4)Gal(b1-4)GlcNAc
# Method in brief: as §1
# [4] = biological target: GalNAc(b1-3)Gal(a1-4)Gal(b1-4)GlcNAc(b1-3)Gal(b1-4)Glc
# Method in brief: as §1
# [5] = biological target: GalNAc(b1-3)Gal(a1-6)Gal(b1-4)Glc
# Method in brief: as §1
# GalNAc(b1-3)GalNAc = biological target: GalNAc(b1-3)GalNAc
# Method in brief: as §1
# GalNAc(b1-3)GlcNAc = biological target: GalNAc(b1-3)GlcNAc
# Method in brief: as §1
# GalNAc(b1-4)Gal(b1-4)Glc = biological target: GalNAc(b1-4)Gal(b1-4)Glc
# Method in brief: as §1
# GalNAc(b1-4)GlcNAc = biological target: GalNAc(b1-4)GlcNAc
# Method in brief: as §1
# [6] = biological target: GalNAc(b1-4)GlcNAc(b1-2)Man
# Method in brief: as §1
# [7] = biological target: GalNAc(b1-4)GlcNAc(b1-2)Man(a1-3)[GalNAc(b1-4)GlcNAc(b1-2)Man(a1-6)]Man(b1-4)GlcNAc(b1-4)GlcNAc
# Method in brief: as §1
# [8] = biological target: GalNAc(b1-4)GlcNAc(b1-3)GalNAc(b1-4)GlcNAc
# Method in brief: as §1
# GalNAc(b1-4)GlcNAc6S = biological target: GalNAc(b1-4)GlcNAc6S
# Method in brief: as §1
# GalNAc(b1-6)GalNAc = biological target: GalNAc(b1-6)GalNAc
# Method in brief: as §1
# GalNAc3S(b1-4)GlcNAc = biological target: GalNAc3S(b1-4)GlcNAc
# Method in brief: as §1
# GalNAc3S(b1-4)GlcNAc3S = biological target: GalNAc3S(b1-4)GlcNAc3S
# Method in brief: as §1
# [9] = biological target: GalNAc3S(b1-4)[Fuc(a1-3)]GlcNAc
# Method in brief: as §1
# GalNAc4S6S(b1-4)GlcNAc = biological target: GalNAc4S6S(b1-4)GlcNAc
# Method in brief: as §1
# GalNAc6S(b1-4)GlcNAc = biological target: GalNAc6S(b1-4)GlcNAc
# Method in brief: as §1
# Glc(a1-4)Glc = biological target: Glc(a1-4)Glc
# Method in brief: as §1
# [10] = biological target: Glc(a1-4)Glc(a1-4)Glc(a1-4)Glc
# Method in brief: as §1
# Glc(a1-6)Glc(a1-6)Glc = biological target: Glc(a1-6)Glc(a1-6)Glc
# Method in brief: as §1
# [11] = biological target: Glc(a1-6)Glc(a1-6)Glc(a1-6)Glc
# Method in brief: as §1
# Glc(b1-4)Glc = biological target: Glc(b1-4)Glc
# Method in brief: as §1
# Glc(b1-6)Glc = biological target: Glc(b1-6)Glc
# Method in brief: as §1
# GlcA(b1-3)Gal = biological target: GlcA(b1-3)Gal
# Method in brief: as §1
# GlcA(b1-3)GlcNAc = biological target: GlcA(b1-3)GlcNAc
# Method in brief: as §1
# GlcA(b1-6)Gal = biological target: GlcA(b1-6)Gal
# Method in brief: as §1
# [12] = biological target: GlcA3S(b1-3)Gal(b1-4)GlcNAc(b1-2)Man
# Method in brief: as §1
# [13] = biological target: GlcA3S(b1-3)Gal(b1-4)GlcNAc(b1-3)Gal(b1-4)Glc
# Method in brief: as §1
# [14] = biological target: GlcNAc(a1-3)Gal(b1-4)GlcNAc
# Method in brief: as §1
# [15] = biological target: GlcNAc(a1-4)Gal(b1-3)GlcNAc
# Method in brief: as §1
# [16] = biological target: GlcNAc(a1-4)Gal(b1-4)GalNAc
# Method in brief: as §1
# [17] = biological target: GlcNAc(a1-4)Gal(b1-4)GlcNAc
# Method in brief: as §1
# [18] = biological target: GlcNAc(a1-4)Gal(b1-4)GlcNAc(b1-3)Gal(b1-4)Glc
# Method in brief: as §1
# [19] = biological target: GlcNAc(a1-4)Gal(b1-4)GlcNAc(b1-3)Gal(b1-4)GlcNAc
# Method in brief: as §1
# [20] = biological target: GlcNAc(a1-4)Gal(b1-4)GlcNAc(b1-3)Gal(b1-4)GlcNAc(b1-3)Gal(b1-4)GlcNAc
# Method in brief: as §1
# [21] = biological target: GlcNAc(a1-4)Gal(b1-4)GlcNAc(b1-3)Gal(b1-4)[Fuc(a1-3)]GlcNAc(b1-3)Gal(b1-4)[Fuc(a1-3)]GlcNAc
# Method in brief: as §1
binder,measurement,setting,value
B1,glycan array binding signal (z-score),Gal6S(b1-4)Glc,-0.166
same,glycan array binding signal (z-score),Gal6S(b1-4)Glc6S,-0.159
same,glycan array binding signal (z-score),Gal6S(b1-4)GlcNAc,-0.19
same,glycan array binding signal (z-score),Gal6S(b1-4)GlcNAc6S,-0.166
same,glycan array binding signal (z-score),GalNAc(a1-3)Gal,-0.188
same,glycan array binding signal (z-score),GalNAc(a1-3)GalNAc,-0.168
same,glycan array binding signal (z-score),[1],-0.184
same,glycan array binding signal (z-score),[2],-0.15
same,glycan array binding signal (z-score),GalNAc(b1-3)Gal,-0.208
same,glycan array binding signal (z-score),[3],-0.177
same,glycan array binding signal (z-score),[4],-0.197
same,glycan array binding signal (z-score),[5],-0.201
same,glycan array binding signal (z-score),GalNAc(b1-3)GalNAc,-0.144
same,glycan array binding signal (z-score),GalNAc(b1-3)GlcNAc,-0.163
same,glycan array binding signal (z-score),GalNAc(b1-4)Gal(b1-4)Glc,-0.142
same,glycan array binding signal (z-score),GalNAc(b1-4)GlcNAc,-0.182
same,glycan array binding signal (z-score),[6],-0.217
same,glycan array binding signal (z-score),[7],-0.175
same,glycan array binding signal (z-score),[8],-0.13
same,glycan array binding signal (z-score),GalNAc(b1-4)GlcNAc6S,-0.199
same,glycan array binding signal (z-score),GalNAc(b1-6)GalNAc,-0.203
same,glycan array binding signal (z-score),GalNAc3S(b1-4)GlcNAc,-0.152
same,glycan array binding signal (z-score),GalNAc3S(b1-4)GlcNAc3S,-0.193
same,glycan array binding signal (z-score),[9],-0.153
same,glycan array binding signal (z-score),GalNAc4S6S(b1-4)GlcNAc,-0.151
same,glycan array binding signal (z-score),GalNAc6S(b1-4)GlcNAc,-0.195
same,glycan array binding signal (z-score),Glc(a1-4)Glc,-0.184
same,glycan array binding signal (z-score),[10],-0.173
same,glycan array binding signal (z-score),Glc(a1-6)Glc(a1-6)Glc,-0.182
same,glycan array binding signal (z-score),[11],-0.205
same,glycan array binding signal (z-score),Glc(b1-4)Glc,-0.134
same,glycan array binding signal (z-score),Glc(b1-6)Glc,-0.184
same,glycan array binding signal (z-score),GlcA(b1-3)Gal,-0.194
same,glycan array binding signal (z-score),GlcA(b1-3)GlcNAc,-0.217
same,glycan array binding signal (z-score),GlcA(b1-6)Gal,-0.183
same,glycan array binding signal (z-score),[12],-0.15
same,glycan array binding signal (z-score),[13],-0.177
same,glycan array binding signal (z-score),[14],0.003
same,glycan array binding signal (z-score),[15],0.528
same,glycan array binding signal (z-score),[16],-0.184
same,glycan array binding signal (z-score),[17],-0.046
same,glycan array binding signal (z-score),[18],0.078
same,glycan array binding signal (z-score),[19],0.022
same,glycan array binding signal (z-score),[20],0.547
same,glycan array binding signal (z-score),[21],-0.034
